Experimental data published in patent CN114395035A.

Biological target: SARS-CoV-2 Alpha variant RBD蛋白 (SARS-CoV-2)
Test: SPR (Biacore 8K)
Conditions: remark: other sources report otherwise

B1: IMCAS-72抗体 (全抗IgG1) (antibody)
heavy: DQVQLVESGGGLVQPGGSLRLSCAASGFTFSSYGMHWVRQAPGKGLEWVAVISYDGSDKYYADSVKGRFTISRDNSKNTLYLQMNSLRAEDTAVYYCARDRDRFGDQGGWFDPWGQGTLVTVSS[sequence of human IgG1 constant region omitted]
light: [sequence of about 100 residues omitted][sequence of about 100 residues omitted]
  Kd: 6.37 nM
